Source: PubChem BioAssay AID2675 (National Center for Advancing Translational Sciences (NCATS), 2010)
Several values for one entry are separate records, joined by “and”; a condition that tells them apart may be missing. Equal entries are not always repeated. Among all 280,000 compounds or so, about 100 (0.036%) were called active. The shares of active, inactive and inconclusive entries below differ from those in the screen. Calls follow the shape of the dose curve; as a rule, active = well fitted inhibition curve with a large enough effect in the signal ratio, with a control signal flat (not every such curve was filed as active); inconclusive = small, poorly fitted or top-dose-only effect, or effect the other way, or a change in a side signal; inactive = no such curve, though single readings can be large or run the other way; the % refers to the signal ratio. Potencies of inconclusive entries are doubtful fits and often do not repeat. “Side channel” marks fits to a control or component signal instead of the main read-out.

Molecular target: Muscleblind-like protein 1 (Homo sapiens) (UniProt Q9NR56)
Sequence of UniProt Q9NR56 (Q9NR56 whole entry, looked up): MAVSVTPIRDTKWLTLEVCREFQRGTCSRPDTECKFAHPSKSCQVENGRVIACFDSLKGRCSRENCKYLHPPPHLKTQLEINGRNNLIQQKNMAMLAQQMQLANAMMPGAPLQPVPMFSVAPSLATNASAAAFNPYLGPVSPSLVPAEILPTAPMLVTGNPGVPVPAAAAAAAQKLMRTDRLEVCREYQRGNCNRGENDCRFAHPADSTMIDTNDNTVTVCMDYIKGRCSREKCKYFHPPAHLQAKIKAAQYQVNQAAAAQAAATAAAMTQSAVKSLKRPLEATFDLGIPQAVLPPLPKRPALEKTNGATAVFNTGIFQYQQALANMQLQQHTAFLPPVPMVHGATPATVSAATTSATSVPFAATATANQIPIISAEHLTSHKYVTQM
Experiment: qHTS Assay for Inhibitors of MBNL1-poly(CUG) RNA binding
Settings: TR-FRET MBNL1-His/biotin-(CUG)12 binding, 665/545 ratio; series mostly up to 57.5 µM
In short: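 MBNL1-His + Biotin-(CUG)12, cpd titration 92 nM–58 uM; Tb anti-His Ab 0.055 ng/ul, SA-XL665 5 nM (final); 60 min RT; ratiometric 665/545 nm, Ex 340 nm; normalized to buffer and full-complex controls.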
Potency is read from the fitted curve at half-maximal effect; tags tell the direction and shape of the fitted curve or compound fluorescence and quenching.

SMILES	Potency
N#CC1=C(N)N(c2ccccc2)C(c2cccc([N+](=O)[O-])c2)C1(C#N)C#N (centres undefined)	inconclusive: 15.8 µM [quencher, side channel, partial curve]
NC(=O)c1nn(CC(=O)Nc2ccc3c(c2)OCO3)cc1[N+](=O)[O-]	inconclusive: 39.8 µM [quencher, side channel, single point]
CC(C)N(C(=O)Nc1ccc2nsnc2c1)C(C)C	inconclusive: 14.1 µM [quencher, side channel, partial curve]
Cc1cc(C)[n+]2n1C(=O)C(c1ccccc1)=C2[O-]	inconclusive: 8.91 µM [quencher, side channel, partial curve] and inconclusive: 10 µM [quencher, side channel, partial curve]
COc1ccc(C(=O)N/N=C/c2ccc(OC)c(COc3ccc(F)cc3)c2)cc1	inactive
Cc1cc2ccccn2c1C(=O)c1cc([N+](=O)[O-])cc([N+](=O)[O-])c1	inconclusive: 3.16 µM [quencher, side channel, full curve, poor fit]
c1ccc(-c2nnc(N3CCN(c4ccccn4)CC3)c3ccccc23)cc1	inconclusive: 39.8 µM [fluorescent, side channel, single point]
Cc1nnsc1C(=O)N/N=C/c1ccc2ccccc2c1O	inactive
O=C1CCC(C(=O)OCC(=O)c2ccccc2)N1 (centres undefined)	inactive
Nc1c(Cl)ncnc1N/N=C/c1ccc2ccccc2n1	inconclusive: 25.1 µM [quencher, partial curve]
c1coc(-c2nc3nc4ccccc4n3nc2-c2ccco2)c1	inconclusive: 3.55 µM [quencher, side channel, full curve]
O=C(O)CCC(=O)N1N=C(c2cccs2)CC1c1cccc([N+](=O)[O-])c1 (centres undefined)	inconclusive: 15.8 µM [quencher, partial curve]
CCc1cc(C(=O)Nc2ccc(C)cc2Br)cs1	inactive
CN1CCN(c2nc(-c3ccccc3Cl)nc3ccccc23)CC1	inactive
Cc1ccc2nc(SCC(=O)Nc3ccccc3N3CCOCC3)c(C#N)cc2c1	inconclusive: 39.8 µM [inhibitor, single point]
CC(C)c1nc(SCC(=O)Nc2ccc([N+](=O)[O-])cc2Br)n[nH]1	inconclusive: 15.8 µM [quencher, partial curve]
CCOc1ccc(C2=CSC3=NCCN23)cc1[N+](=O)[O-]	inconclusive: 25.1 µM [quencher, side channel, partial curve]
COc1cccc(/C=N/Nc2ncnc(N)c2[N+](=O)[O-])c1OC	inconclusive: 3.55 µM [quencher, side channel, full curve]
C=CCSc1nnc(-c2ccc([N+](=O)[O-])cc2)o1	inconclusive: 11.2 µM [quencher, partial curve]
COc1cc([N+](=O)[O-])ccc1NC(=S)N1CCOCC1	inconclusive: 25.1 µM [quencher, side channel, partial curve]

SMILES	Potency
COc1ccc(-c2nnc(C)c3nocc23)cc1	inconclusive: 11.2 µM [quencher, side channel, partial curve]
COC(=O)c1[nH]c2cc(OC)c(OC)cc2c1NC(=O)Oc1ccccc1	inconclusive: 12.6 µM [quencher, side channel, partial curve]
COc1ccc(-c2cc(C(F)(F)F)nc(SCC(=O)Nc3cc(C)on3)n2)cc1	inactive
O=C(NC(=S)NCCCN1CCOCC1)c1ccc([N+](=O)[O-])cc1	inconclusive: 10 µM [quencher, partial curve]
COC(=O)c1nc(C(=O)OC)c(C(=O)OC)nc1C(=O)OC	inconclusive: 7.08 µM [quencher, side channel, partial curve]
CC(=O)C1=C(O)C=C(c2ccco2)CC1c1ccco1 (centres undefined)	inconclusive: 14.1 µM [quencher, side channel, partial curve]
CCOC(=O)C1CCCN(Cc2nc(N)nc(Nc3ccccc3)n2)C1 (centres undefined)	inactive
COc1ccccc1-n1c(SCC(=O)N2CCc3ccccc32)nc2c(c1=O)SCC2	inconclusive: 11.2 µM [quencher, side channel, partial curve]
CCOc1cc(CNc2ccc3c(c2)OCCO3)cc(Br)c1OCC	inactive
Cc1cc(C)c2[nH]c3nc(SCC(=O)O)nnc3c2c1	inconclusive: 17.8 µM [quencher, side channel, partial curve]
O=C(/C=C/c1ccccc1)CC(O)(c1ccccc1)C(F)(F)F (centres undefined)	inactive
CCOC(=O)c1c2c(c(=S)n(-c3ccccc3)c1N)CCC2	inconclusive: 28.2 µM [quencher, side channel, partial curve]
CS(=O)(=O)c1ccc(NCCN2CCOCC2)c([N+](=O)[O-])c1	inconclusive: 15.8 µM [quencher, partial curve]
CN(C)c1ccc(P(=O)(Nc2ccccc2)N2CCOCC2)c(NC(=O)c2cccs2)c1 (centres undefined)	inconclusive: 35.5 µM [fluorescent, side channel, single point]
Nc1ncnc(NCc2ccc(F)cc2)c1[N+](=O)[O-]	inconclusive: 3.55 µM [quencher, side channel, full curve]
COc1ccc(/C=C/c2ccncc2)cc1	inconclusive: 17.8 µM [quencher, side channel, partial curve]
COc1ccc2c(c1OC)C(=O)OC2C1c2c(cc3c(c2OC)OCO3)CCN1C (centres undefined)	inconclusive: 79.4 µM [inhibitor, single point]
Cc1c(-n2cc(C(=O)c3cc(F)ccc3O)cc(C#N)c2=O)c(=O)n(-c2ccccc2)n1C	inconclusive: 28.2 µM [quencher, side channel, single point]
CC(Oc1ccc([N+](=O)[O-])cc1Cl)C(=O)Nc1ccc(C(N)=O)cc1 (centres undefined)	inconclusive: 4.47 µM [quencher, side channel, full curve]
